Among all 310,000 compounds or so, about 2,200 (0.71%) showed an effect of 50% or more. Effects have a minus sign here. The list shows a part of the results.

Sequence of human ether-à-go-go-related gene (hERG) potassium channel (Q12809 whole entry, looked up): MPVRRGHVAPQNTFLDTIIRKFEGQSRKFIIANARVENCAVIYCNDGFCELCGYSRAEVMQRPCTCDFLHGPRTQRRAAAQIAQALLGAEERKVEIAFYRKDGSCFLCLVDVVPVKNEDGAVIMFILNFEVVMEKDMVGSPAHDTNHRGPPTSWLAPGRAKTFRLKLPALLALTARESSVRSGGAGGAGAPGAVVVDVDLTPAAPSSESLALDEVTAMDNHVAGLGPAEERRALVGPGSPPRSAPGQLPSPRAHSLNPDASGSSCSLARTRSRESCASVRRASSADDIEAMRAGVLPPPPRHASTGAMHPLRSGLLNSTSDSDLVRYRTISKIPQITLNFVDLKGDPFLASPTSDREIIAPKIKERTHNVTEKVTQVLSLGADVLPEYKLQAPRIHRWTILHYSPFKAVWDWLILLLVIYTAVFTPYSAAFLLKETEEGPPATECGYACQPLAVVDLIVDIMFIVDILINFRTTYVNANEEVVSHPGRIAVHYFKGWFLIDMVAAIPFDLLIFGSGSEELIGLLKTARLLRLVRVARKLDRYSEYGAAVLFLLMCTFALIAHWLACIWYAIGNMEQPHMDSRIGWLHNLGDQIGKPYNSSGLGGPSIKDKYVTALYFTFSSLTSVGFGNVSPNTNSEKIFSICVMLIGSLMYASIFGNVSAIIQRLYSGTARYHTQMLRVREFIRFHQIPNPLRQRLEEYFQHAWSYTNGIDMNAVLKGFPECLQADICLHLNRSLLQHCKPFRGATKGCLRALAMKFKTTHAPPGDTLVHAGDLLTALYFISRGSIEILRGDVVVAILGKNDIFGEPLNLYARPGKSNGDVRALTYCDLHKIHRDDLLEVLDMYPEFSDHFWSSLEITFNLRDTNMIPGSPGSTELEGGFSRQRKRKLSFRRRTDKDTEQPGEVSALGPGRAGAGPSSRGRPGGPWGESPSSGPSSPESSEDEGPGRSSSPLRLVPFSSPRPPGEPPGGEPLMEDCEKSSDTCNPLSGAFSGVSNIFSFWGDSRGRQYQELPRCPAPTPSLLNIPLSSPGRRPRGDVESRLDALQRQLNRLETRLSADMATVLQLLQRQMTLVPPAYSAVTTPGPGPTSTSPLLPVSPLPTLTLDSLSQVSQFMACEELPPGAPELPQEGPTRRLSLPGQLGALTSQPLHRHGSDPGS

This experiment addresses human ether-à-go-go-related gene (hERG) potassium channel (human, UniProt Q12809). Briefly: primary screen, population patch clamp on CHO cells stably expressing hERG.
For `Br.O=C(CN1C2=NCCN2c2ccccc21)c1cccs1`, the “hERG current change (%, negative = inhibition) at 1uM” value was 6.89%.
Turning to `CCN(CC)CCNC(=O)CCn1nc(-c2ccc(Cl)cc2)ccc1=O`, the “hERG current change (%, negative = inhibition) at 1uM” value was 12%.
Turning to `O=c1[nH]c(=S)[nH]c(O)c1/C=N/N1CCOCC1`, the “hERG current change (%, negative = inhibition) at 1uM” value is reported as 12.6%.
Take `Cc1nc2cc(C(=O)OCC(=O)NC34CC5CC(CC(C5)C3)C4)ccc2n1-c1ccccc1`: the “hERG current change (%, negative = inhibition) at 1uM” value is recorded as 9.35%.
Regarding `COc1cccc(C(=O)NCCS(=O)(=O)NCc2ccc(Cl)cc2)c1`, the “hERG current change (%, negative = inhibition) at 1uM” value is -3.65%.
Next, `CCCCc1nc(Cl)c(CO)n1Cc1ccc(-c2ccccc2-c2nnn[n-]2)cc1.[K+]`: 3.74%; `O=C(NCCCN1CCOCC1)c1ccc2c(=O)n(Cc3ccc(Cl)cc3)c(=S)[nH]c2c1`: 7.13%.
As to `O=c1cc(CSCc2ccc(Cl)cc2)[nH]c(=O)[nH]1`, the “hERG current change (%, negative = inhibition) at 1uM” value was found to be 0.0675%.
For `Cc1ccccc1Nc1nnc(SCC(=O)c2cc3ccccc3o2)s1`, the “hERG current change (%, negative = inhibition) at 1uM” value is given as 5.59%.
Consider `Cc1nnc(NC(=O)Nc2ccc(Cl)c(Cl)c2)s1`, for which the “hERG current change (%, negative = inhibition) at 1uM” value amounted to 14.3%.
On to `COc1ccc(S(=O)(=O)Nc2ccccc2C(=O)NCc2ccco2)cc1`, for which the “hERG current change (%, negative = inhibition) at 1uM” value is recorded as -2.83%.
The result for `CCc1nnc(NC(=O)C2CCCN2C(=O)Nc2ccc(Cl)cc2)s1` (centres unmarked) reads 8.17%; that for `COc1cc(/C=C(\C#N)C(=O)NCCc2ccccc2)cc(OC)c1O`, 19.2%; that for `COc1ccc(N2C(=O)CC(Sc3nnnn3-c3ccc(F)cc3)C2=O)cc1` (centres unmarked), 2.13%.
In the case of `O=C(Nc1ccc2c(c1)N(S(=O)(=O)c1cccs1)CCC2)c1c(F)cccc1Cl`, the “hERG current change (%, negative = inhibition) at 1uM” value came to 11.2%.
For the compound `O=C(Nc1ccccc1)N1CCN(c2nc3ccccc3s2)CC1`, the “hERG current change (%, negative = inhibition) at 1uM” value is on record as -17.4%.
Turning to `S=C(NCCCc1ccccc1)Nc1ccc(Br)cc1`, the “hERG current change (%, negative = inhibition) at 1uM” value came to 17.2%.
In the case of `O=C1c2nc3cc(-c4ccco4)[nH]n3c(=O)c2CN1Cc1ccccc1`, the “hERG current change (%, negative = inhibition) at 1uM” value is on record as 10.9%.
The result for `COC(=O)CSc1nnc(C)n1-c1cccc(C#N)c1` reads 0.597%; that for `COc1ccccc1-c1n[nH]c2c1[C@H](C)CC[C@H]2C(C)C`, 14.4%.
`O=C(Nc1ccccn1)N1CCOCC1`: the “hERG current change (%, negative = inhibition) at 1uM” value was 13.1%.
For `Cc1cccc(N(Cc2ccccc2)C(=O)C2CCN(C(=O)c3ccccc3C)CC2)c1`, the “hERG current change (%, negative = inhibition) at 1uM” value is -1.04%.
Next, `COc1ccc(C2OCC3(CO2)SC(=O)NC3=O)cc1` (centres unmarked): 3.3%; `CC1(C)SC(=S)N(NC(=O)Nc2cccc3ccccc23)C1N(O)C(=O)Nc1ccccc1` (centres unmarked): 7.48%.
Regarding `CCCn1cc(S(=O)(=O)c2ccccc2)c(=O)c2cc(OC)c(OC)cc21`, the “hERG current change (%, negative = inhibition) at 1uM” value is 10.1%.
Next, `O=C(c1cc(-c2ccncc2)nc2ccc(Cl)cc12)N1CCN(Cc2ccc3c(c2)OCO3)CC1`: 14.5%; `Cc1cc(=O)[nH]c(SCC(=O)Nc2ncc(S(=O)(=O)c3ccc([N+](=O)[O-])cc3)s2)n1`: 14.9%.
For `CCOc1ccccc1/C=N/Nc1ccnc(=O)[nH]1`, the “hERG current change (%, negative = inhibition) at 1uM” value is 16.1%.
For the compound `CC(C)Cn1nc(C(=O)Nc2cccc(S(=O)(=O)N3CCCC3)c2)c2ccccc2c1=O`, the “hERG current change (%, negative = inhibition) at 1uM” value was determined as 8.59%.
Consider `Cc1nc2ncnn2c(N2CCN(C(=O)c3cccc(F)c3)CC2)c1Cc1ccccc1`, for which the “hERG current change (%, negative = inhibition) at 1uM” value is on record as -17.8%.
Consider `CCc1ccc(NC(=O)CNCc2ccc(OC)c(OC)c2)cc1.O=C(O)C(=O)O`, for which the “hERG current change (%, negative = inhibition) at 1uM” value was found to be 9.83%.
The result for `Cc1ccc(NC(=O)c2cn(CCC#N)nc2-c2cccs2)c([N+](=O)[O-])c1` reads 8.93%; that for `O=C(NNC(=S)Nc1ccccc1)NNC(=S)Nc1ccccc1`, 12.1%.
Next, `CCc1cccc(C)c1NC(=O)c1cccc(N(C)C)c1`: 0.591%.
In the case of `CN1CCN(C(=O)c2ccc(COc3ccc(C(C)(C)C)cc3)o2)CC1`, the “hERG current change (%, negative = inhibition) at 1uM” value worked out at 0.586%.
Next, `CC(=O)Nc1ccc(S(=O)(=O)NCCC(=O)OCc2csc(CC(=O)Nc3ccccc3C)n2)cc1`: 13.1%; `CC(=O)OC(C(=O)n1nc(C)cc1C)c1ccccc1` (centres unmarked): 6.7%; `CC(CNc1nc2ccc(Cl)cc2n2cnnc12)c1ccccc1` (centres unmarked): 17.4%.
Next, `CCC1CCCCN1C(=O)COC(=O)c1ccc(Br)o1` (centres unmarked): 11.6%.
As to `O=C(/C=C/NCc1ccc(F)cc1)c1ccccc1`, the “hERG current change (%, negative = inhibition) at 1uM” value turned out to be 5.72%.
Next, `Fc1cccc(F)c1CN1CCN(c2ccc(Cl)cc2)CC1`: 16.7%; `O=C(CSc1ccc(-c2ccc(F)cc2)nn1)N1CCCc2ccccc21`: 11%; `COc1cccc(CC(Cc2nc3ccccc3[nH]2)c2nc3ccccc3[nH]2)c1` (centres unmarked): 11.2%.
In the case of `COc1ccc(N2C(=O)C(C)C(Cc3ccc(C)cc3)C2=O)cc1` (centres unmarked), the “hERG current change (%, negative = inhibition) at 1uM” value turned out to be 13.9%.

Values taken from article PMC4336329 (PLoS ONE, 2015).
